This is one part of the list. At the low end of the ranking, values are background and their order means little. Measured with an extract: partners may take part in the binding.
molecular target: T1, HNF4alpha2 (COS-7 nuclear extract) (UniProt P41235); experiment: protein-binding microarray; details: COS-7 nuclear extract on double-stranded Agilent 4x180k PBM; binding buffer, salt, pH and temperature not given; high values mean tight binding; double strand, one strand shown; sequences stand for … in …GCCTAGGGAGATTAGAGTATCGGTCGA
T1 sequence: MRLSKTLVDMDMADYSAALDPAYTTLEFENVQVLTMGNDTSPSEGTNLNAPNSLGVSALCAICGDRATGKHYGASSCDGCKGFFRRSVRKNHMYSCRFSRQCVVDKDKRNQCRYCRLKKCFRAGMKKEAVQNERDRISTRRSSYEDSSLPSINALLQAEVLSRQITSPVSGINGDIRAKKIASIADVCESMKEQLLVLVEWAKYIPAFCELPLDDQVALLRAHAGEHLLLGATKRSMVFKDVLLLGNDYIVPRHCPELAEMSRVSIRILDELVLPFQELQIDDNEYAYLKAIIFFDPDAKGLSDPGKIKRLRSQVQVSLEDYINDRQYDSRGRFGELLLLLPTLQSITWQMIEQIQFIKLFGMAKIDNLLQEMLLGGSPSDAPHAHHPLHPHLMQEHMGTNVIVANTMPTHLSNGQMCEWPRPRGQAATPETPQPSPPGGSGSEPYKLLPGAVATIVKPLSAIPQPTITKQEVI

Sequence | binding signal (log2 normalized intensity)
AAAGAAGAATGTGGCCATTTTACTTGTCAA | -1.08
ACTCACTAGCATTAGGACCTGTTTGTCTTG | 1.26
GCTTCTGCCCCAGACACGCTTGACTGGCTC | -1.11
ACCAGGGGTCATTTTATGGGAAAACAGAAT | 0.785
ATAACATGAGGATACTGATAACATGAGGTA | -0.454
ACAGACTCTGGGAGATAAAGCAGAGGGCTG | -1.14
AGAGCAATCTCTCATCTGCCTTGTGATTTC | 0.307
CAGCCACGCTCCTCTTATCATTAGATTCCA | -1.2
AGGAGATGTGGTGGACTTTAACGACCTTTG | 4.66
TATCTGTAAAATGGACATAGTAACAACCTA | -1.06
CACAGTGTAGAAGGCAAGGGTCAAGATGTC | 1.8
AGAGAATAGCTCAGGTCCAAGGAACCTCAC | -1.14
TTCGGTGCTGACCTTTGTTCACATTTGTGC | 5.06
GAGAAGTGAACTTTGCCCTCTCTTTCTGGA | 7.55
CAGATGTTTCTGCAAGCACACTGTCCTGCT | -0.824
GAACTGAAAGAGACCTTTGACATCACCTAA | 2.04
GATCGATCACACAGACAGACATTCAGAAAC | -1.09
GCTTGTCGAGGACAGGATGGGGGTGGGAGG | -1.13
CTAGGCAGCATAGGGCCACTTTGTCCTTCA | -0.256
TCAGGAGAGGAGGCCCACACCCCTGGGGAA | -1.17

Sequence | binding signal (log2 normalized intensity)
GCTAGAGATTCTCCCTGGGGCCTCTGAAGT | -1.21
TCCGAACGCCAGCAGCAGGGTCAGAAGGGA | -1.21
ACAGTGACGTTCTGCCCCTTATCTTCTGGC | 2.09
CTCAATCGCCTTTTATTTTTCCCCTGAAAT | 2.47
CCTCACAATCTTAAGATAAGGTCTTTCTGA | 0.361
GTCAGGCAGAGAGGGACTCTGACCCAGGAG | 2.26
TGGCATTCCAGGATGAAGGAAGAGGGAAGA | -1.05
GTCCAAGGACTCAATGATACCATCAGATAC | -1.2
TCTGTCCTGAGATGTCTGCTTCTTGGGTCA | 2.03
CCATCCCCCAATACACACACACCCCTCCAC | 6.43
AGGGTTAAGCTCATGCTTTCATCTCCCCAA | 2.09
CCGCGATTAAAAATGGAACAGTAAGTGTTA | 1.2
TGTCAAAGGGAGAAAGACATGTTTCTAACT | -1.01
ATACAAGTCGTAAAGACCTTGCTGATTACA | -1.21
CAAGCCCTCTAACTATGCAGTGTCCATGGT | 1.39
GTCTGAGCACATCACACAGGCATATTTGGT | -0.509
TCTGCTTGCAACCAAAGGAGTCCTGGCTGA | -1.23
GGTGGGCAGAGGCCTGATGGTGAGTTCTGT | -0.779
ATTTGGACTTTTTGTAGTTTCAGCTTCTTC | 1.54
CGGTGCATTTTTTTCCACCCTCCCCTCCCC | 5.05

— paper PMC10726135
